Reference: PubChem BioAssay AID686970 (National Center for Advancing Translational Sciences (NCATS), 2013)
Out of some 360,000 compounds screened, about 6,000 (1.7%) were called active. The inconclusive results got no clear call from the source; some entries with a clear call stand among them for comparison. Calls come from the whole dose curve; as a rule, active = well fitted cell-killing curve with a large enough effect; inconclusive = small, poorly fitted or top-dose-only effect, or effect the other way; inactive = flat fitted curve, though single readings scatter. No potency is given beside an inconclusive call; the fits are too rough.

Assay: qHTS for induction of synthetic lethality in tumor cells producing 2HG: qHTS for the HT-1080-NT fibrosarcoma cell line;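 note: NT is the 2HG producing partner of a matched IDH1 knockdown line; nearly all actives have a fitted effect of over 55% in size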;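 for activity, negative = less viability: 0% = DMSO-treated cells and -100% = media-only wells without cells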
Conditions: HT-1080-NT fibrosarcoma viability, CellTiter-Glo ATP luminescence, 48 h; activity, negative = less viability: at 46.1 µM (top of the series) unless noted
Summary of the method: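 A 48-hour cytotoxicity screen used HT-1080-NT cells plated 2 hours before compound delivery. ATP-based CellTiter-Glo luminescence measured viability, normalized to DMSO and no-cell controls.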
Potency is the fitted concentration of half-maximal effect; tags give direction and shape of the fitted curve.

Compound | Potency | activity, negative = less viability
OC[C@@H]1CN(C2CCCC2)C[C@H](n2cnc3c(NC4CC4)ncnc32)O1 | inconclusive [rising, single point] | 
Cc1ccc(N(Cc2cc(=O)[nH]c3ccccc23)C(=O)CCl)c(C)c1 | active: 4.61 µM | 
COc1ccc(-c2cc([C@H]3[C@H]4C=CC[C@@H](C)[C@@H]4C(=O)N3Cc3ccccc3)ccc2F)cc1 | inconclusive [cytotoxic, single point] | 
CCOCCn1c(SCC)nc2c1c(=O)[nH]c(=O)n2C | inactive | 
COc1cc(CNC(C)(C)CO)cc(Br)c1OCc1ccccc1 | inconclusive [cytotoxic, partial curve] | 
CCOC(=O)c1c(C2COc3ccccc3O2)csc1N (stereo not given) | inconclusive [cytotoxic, single point] | 
Cc1cc(Cl)c2oc(C(=O)N3CCN(c4ccncc4)CC3)c(C)c2c1 | active: 11.6 µM | 
CCCCNC(=O)c1ccccc1C(=O)NCCCC | inconclusive [cytotoxic, single point] | 
O=C(Nc1nc2c(ccc3ccccc32)s1)c1ccco1 | inconclusive [cytotoxic, partial curve] | 
Clc1ccc(-c2nnc(Sc3nc4ccccc4o3)c3ccccc23)cc1 | active: 11.2 µM | 
Cc1cccc(C)c1N(CC(O)Cn1c2ccccc2c2ccccc21)S(C)(=O)=O (stereo not given) | inconclusive [cytotoxic, single point] | 
NC(=NCc1ccccc1)NC(=O)c1nc(Cl)c(N)nc1N | inconclusive [cytotoxic, full curve, poor fit] | 
O=C1NC(=S)NC1=Cc1ccc(Cl)cc1Cl | inactive | 
CC(C)C[C@@H](CNCC(=O)[C@H](Cc1ccccc1)NC(=O)c1[nH]cnc1C(=O)N[C@H](CN)CC(C)C)NC(=O)c1nc[nH]c1C(=O)N[C@@H](CC(=O)O)C(=O)O | inactive | 
O=[N+]([O-])c1ccc(C[n+]2cccc3ccc4cccnc4c32)cc1 | inconclusive [cytotoxic, partial curve] | 
CCCCOc1ccccc1NC(=O)Cn1c(-c2nonc2N)nc2ccccc21 | active: 1.46 µM | 
Clc1cccc(NCc2nnc(SCc3ccc(Cl)cc3Cl)o2)c1 | inconclusive [cytotoxic, single point] | 
CCOC(=O)c1c(C)c(C(=O)NCc2cccs2)c(C)n1C | inconclusive [cytotoxic, partial curve, poor fit] | 
O=C(NCC1CCCCC1)C1(CC2CC(c3ccc(Cl)cc3)=NO2)CCNCC1 (stereo not given) | inconclusive [cytotoxic, single point] | 
Nc1ccccc1C(=O)NNc1ncc(C(F)(F)F)cc1Cl | inconclusive [cytotoxic, single point] | 
CCOC1(OCC)C(c2ccc(Cl)cc2)C(C#N)(C#N)C1(OCC)OCC (stereo not given) | inconclusive [cytotoxic, single point] | 
Cc1cc(C(=O)NC(C)C2CCCO2)c(C)o1 (stereo not given) | inactive | 
COc1ccc(S(=O)(=O)N2c3cc(C)ccc3OCC2C(C)(C)C)cc1 (stereo not given) | active: 5.8 µM | 
COc1cccc(NC(=O)Nc2nc(SC)ns2)c1 | inconclusive [cytotoxic, single point] | 

Compound | Potency | activity, negative = less viability
COC(=O)c1ccc(=O)n(-c2ccc(OC)cc2)c1 | inactive | 
CCOC(=O)c1c(NC(=O)CSc2nnnn2C)sc(C(=O)N(C)C)c1C | inactive | 
Cc1cc(C)n(-c2nc3ccccc3c(=O)n2OCC(=O)OCc2ccccc2)n1 |  | inconclusive: -30.3% [cytotoxic]
Oc1cccc(NC(=S)N=Nc2c(O)[nH]c3ccccc23)c1 | inconclusive [cytotoxic, single point] | 
O=C(Cn1c(C(=O)N2CCN(C3CCCCC3)CC2)cc2sccc21)c1ccccc1 | inconclusive [cytotoxic, single point] | 
CN1C(=O)C(C)(C)c2cc(S(=O)(=O)N3CCN(c4ccccc4)CC3)ccc21 | inactive | 
CC1(C(=O)NS(=O)(=O)c2ccc(C#N)cc2)CCN1C(=O)C1CCCCC1 (stereo not given) | inconclusive [rising, partial curve] | 
Cc1nc(CS(=O)c2ccc(Cl)cc2)cc(NCc2ccc(Cl)cc2Cl)n1 (stereo not given) | inconclusive [cytotoxic, partial curve] | 
CC1(OC(=O)C2CCCC2)C(=O)C=C2C=C(c3ccsc3)N(CC3CC3)C=C2C1=O (stereo not given) | inactive | 
CCCOc1ccc(F)cc1-c1cc(C(=O)Nc2ccc(C(C)C)cc2)[nH]n1 | inconclusive [cytotoxic, single point] | 
O=C(CN1C(=O)C2CCCCC2C1=O)N1CCN(c2ccccc2)CC1 (stereo not given) | inconclusive [rising, full curve, poor fit] | 
Cc1oncc1C(=O)Nc1ccc(C(F)(F)F)cc1 | inconclusive [cytotoxic, partial curve, poor fit] | 
CCCOC(=O)c1cccc(NC(=O)c2cccnc2)c1 | inactive | 
O=S(=O)(Nc1ccc(C(O)(C(F)(F)F)C(F)(F)F)cc1)c1cccc2cccnc12 | inconclusive [cytotoxic, single point] | 
COc1ccc(NC(=O)c2ccc(NC(=O)c3cccs3)cc2)cc1 | inconclusive [cytotoxic, single point] | 
Cc1ccc(-c2nn(-c3ccccc3)cc2/C=N/n2c(-c3cccs3)n[nH]c2=S)cc1 | inconclusive [cytotoxic, single point] | 
C[C@]12c3[nH]c4ccccc4c3CCN1C(=O)C(CC(=O)NCCN1CCOCC1)C[C@@H]2C(=O)N1CCCCC1 (stereo not given in full) | inactive | 
COc1ccc(C(=O)CCN2CCC(C)CC2)cc1 | inconclusive [cytotoxic, single point] | 
CCOC(=O)c1c2c(n(-c3ccc(OC)cc3)c1C)C(=O)C(=O)c1ccccc1-2 | active: 14.6 µM | 
COC(=O)c1ccc(COc2ccccc2/C=N/NC(=O)c2cccnc2)cc1 | inconclusive [cytotoxic, single point] | 
N#Cc1c(NC(=O)C2CC(c3ccccc3O)=NO2)sc2c1CCC2 (stereo not given) | inactive | 
Cc1ccc(C(C)(C)C)cc1S(=O)(=O)N1CC(=O)Nc2ccccc21 | inconclusive [cytotoxic, single point] | 
Cc1cc(NC(=O)c2cc3n(n2)C(C(F)(F)F)CC(c2ccco2)N3)no1 (stereo not given) | inconclusive [cytotoxic, single point] | 
CCCCC[C@H](C)N1C[C@@H](COCc2ccccc2)Oc2cc(N3CC[C@H](O)C3)ccc2S1(=O)=O | inconclusive [cytotoxic, single point] | 

Compound | Potency | activity, negative = less viability
COC(=O)c1c(-c2ccccc2Cl)noc1/C=C/N(C)C | inconclusive [cytotoxic, single point] | 
Clc1cccc(-c2ccc(-c3nc4ccccn4c3NCc3ccccc3)cc2)c1 | inconclusive [cytotoxic, single point] | 
O=C(O)c1cccnc1Nc1cccc(C(F)(F)F)c1 | inactive | 
Cc1cc(-c2ccccc2)nc(N/N=C/c2ccc(O)cc2O)n1 | inconclusive [cytotoxic, full curve] | 
CC1CCN(CC(=O)N2c3ccccc3CC2C)CC1 (stereo not given) | inactive | 
CC(=O)Oc1ccc(N(C(C)=O)S(=O)(=O)c2ccc(C)cc2)c2ccccc12 | inconclusive [cytotoxic, single point] | 
c1ccc(CNc2nc(Oc3ccncc3)c3sccc3n2)cc1 | inactive | 
CC(/C=C1\SC(=S)N(CCCC(=O)Nc2ccc(C(=O)O)cc2)C1=O)=C\c1ccccc1 | inconclusive [cytotoxic, single point] | 
COc1ccc(Cc2c(-c3cccc(Cl)c3)nc3c(C)cc(Br)cn23)c(C)c1 | active: 20.6 µM | 
Cc1[nH]nc(-c2ccc(O)cc2O)c1Oc1ccccc1 | inconclusive [cytotoxic, single point] | 
CCS(=O)(=O)c1ccc(N=Nc2ccc(O)c3ncccc23)c(OC)c1 | active: 1.46 µM | 
CC1(C)N=C(N)N=C(N)N1c1ccc(OCC(=O)Nc2ccccc2)c(Cl)c1 | active: 0.731 µM | 
C/C(=N/NC(=O)C1COc2ccccc2O1)c1ccc(Br)s1 (stereo not given) |  | inconclusive: 31.5%
CC(=O)Nc1cccc(-c2csc(Nc3ccc(C)cn3)n2)c1 | inconclusive [cytotoxic, single point] | 
Brc1ccc(C2=Nn3c(nnc3-c3n[nH]c4c3CCC4)SC2)cc1 | active: 1.16 µM | 
c1ccc(-c2cn(C[C@H]3CC[C@H](Cn4cc(-c5ccccn5)nn4)O3)nn2)nc1 | inactive | 
Cc1ccc(N(CC(O)Cn2c3ccccc3c3ccccc32)S(C)(=O)=O)cc1 (stereo not given) | inconclusive [cytotoxic, single point] | 
COc1cccc(Nc2nc(C)cc(C)c2C(N)=O)c1 | inconclusive [rising, partial curve] | 
CC(Nc1nc(N2CCNCC2)nc2ccccc12)c1ccccc1 (stereo not given) | inconclusive [cytotoxic, single point] | 
N#C/C(=N\Nc1cccc(Cl)c1)C(=O)c1ccccc1 | inconclusive [cytotoxic, single point] | 
COc1ccc(C(=O)NC2(C(F)(F)F)NC(=O)N(CCCc3ccccc3)C2=O)cc1OC (stereo not given) | inconclusive [cytotoxic, partial curve, poor fit] | 
Cc1ccc(NC(=O)C2CCN(c3nc(C)cc(C)n3)CC2)cc1 | inactive | 
